± gives the standard deviation of the averaged measurements. Laboratory Escherichia coli strains with one amino-acid change in an essential protein, pooled on minimal glucose agar with carbenicillin or gentamicin at twice the control MIC (plus kanamycin and chloramphenicol for the plasmids), 48 h. Fold change of barcode share against drug-free plates; higher = less susceptible. Active = above 20 in both replicates (the paper's putatively resistant). '<' = one read or none on drug, '>' = one read or none on a drug-free plate. Shares are relative, so most strains fall below 1 when a few take over. Listed are strains with at least 15 reads on both drug-free plates, and hits; most hits rest on fewer reference reads. Replicate rank correlation about 0.5. Edits are read from barcodes.
B1: ilvE I101Q (protein)
chain: MTTKKADYIWFNGEMVRWEDAKVHVMSHALHYGTSVFEGIRCYDSHKGPVVFRHREHMQRLHDSAKIYRFPVSQSIDELMEACRDVIRKNNLTSAYIRPLQFVGDVGMGVNPPAGYSTDVIIAAFPWGAYLGAEALEQGIDAMVSSWNRAAPNTIPTAAKAGGNYLSSLLVGSEARRHGYQEGIALDVNGYISEGAGENLFEVKDGVLFTPPFTSSALPGITRDAIIKLAKELGIEVREQVLSRESLYLADEVFMSGTAAEITPVRSVDGIQVGEGRCGPVTKRIQQAFFGLFTGETEDKWGWLDQVNQ
B2: ilvE I101P (protein)
chain: MTTKKADYIWFNGEMVRWEDAKVHVMSHALHYGTSVFEGIRCYDSHKGPVVFRHREHMQRLHDSAKIYRFPVSQSIDELMEACRDVIRKNNLTSAYIRPLPFVGDVGMGVNPPAGYSTDVIIAAFPWGAYLGAEALEQGIDAMVSSWNRAAPNTIPTAAKAGGNYLSSLLVGSEARRHGYQEGIALDVNGYISEGAGENLFEVKDGVLFTPPFTSSALPGITRDAIIKLAKELGIEVREQVLSRESLYLADEVFMSGTAAEITPVRSVDGIQVGEGRCGPVTKRIQQAFFGLFTGETEDKWGWLDQVNQ
B3: ilvE V103A (protein)
chain: MTTKKADYIWFNGEMVRWEDAKVHVMSHALHYGTSVFEGIRCYDSHKGPVVFRHREHMQRLHDSAKIYRFPVSQSIDELMEACRDVIRKNNLTSAYIRPLIFAGDVGMGVNPPAGYSTDVIIAAFPWGAYLGAEALEQGIDAMVSSWNRAAPNTIPTAAKAGGNYLSSLLVGSEARRHGYQEGIALDVNGYISEGAGENLFEVKDGVLFTPPFTSSALPGITRDAIIKLAKELGIEVREQVLSRESLYLADEVFMSGTAAEITPVRSVDGIQVGEGRCGPVTKRIQQAFFGLFTGETEDKWGWLDQVNQ
B4: ilvE V103W (protein)
chain: MTTKKADYIWFNGEMVRWEDAKVHVMSHALHYGTSVFEGIRCYDSHKGPVVFRHREHMQRLHDSAKIYRFPVSQSIDELMEACRDVIRKNNLTSAYIRPLIFWGDVGMGVNPPAGYSTDVIIAAFPWGAYLGAEALEQGIDAMVSSWNRAAPNTIPTAAKAGGNYLSSLLVGSEARRHGYQEGIALDVNGYISEGAGENLFEVKDGVLFTPPFTSSALPGITRDAIIKLAKELGIEVREQVLSRESLYLADEVFMSGTAAEITPVRSVDGIQVGEGRCGPVTKRIQQAFFGLFTGETEDKWGWLDQVNQ
B5: ilvE V103Q (protein)
chain: MTTKKADYIWFNGEMVRWEDAKVHVMSHALHYGTSVFEGIRCYDSHKGPVVFRHREHMQRLHDSAKIYRFPVSQSIDELMEACRDVIRKNNLTSAYIRPLIFQGDVGMGVNPPAGYSTDVIIAAFPWGAYLGAEALEQGIDAMVSSWNRAAPNTIPTAAKAGGNYLSSLLVGSEARRHGYQEGIALDVNGYISEGAGENLFEVKDGVLFTPPFTSSALPGITRDAIIKLAKELGIEVREQVLSRESLYLADEVFMSGTAAEITPVRSVDGIQVGEGRCGPVTKRIQQAFFGLFTGETEDKWGWLDQVNQ
B6: ilvE V103P (protein)
chain: MTTKKADYIWFNGEMVRWEDAKVHVMSHALHYGTSVFEGIRCYDSHKGPVVFRHREHMQRLHDSAKIYRFPVSQSIDELMEACRDVIRKNNLTSAYIRPLIFPGDVGMGVNPPAGYSTDVIIAAFPWGAYLGAEALEQGIDAMVSSWNRAAPNTIPTAAKAGGNYLSSLLVGSEARRHGYQEGIALDVNGYISEGAGENLFEVKDGVLFTPPFTSSALPGITRDAIIKLAKELGIEVREQVLSRESLYLADEVFMSGTAAEITPVRSVDGIQVGEGRCGPVTKRIQQAFFGLFTGETEDKWGWLDQVNQ
B7: ilvE M255A (protein)
chain: MTTKKADYIWFNGEMVRWEDAKVHVMSHALHYGTSVFEGIRCYDSHKGPVVFRHREHMQRLHDSAKIYRFPVSQSIDELMEACRDVIRKNNLTSAYIRPLIFVGDVGMGVNPPAGYSTDVIIAAFPWGAYLGAEALEQGIDAMVSSWNRAAPNTIPTAAKAGGNYLSSLLVGSEARRHGYQEGIALDVNGYISEGAGENLFEVKDGVLFTPPFTSSALPGITRDAIIKLAKELGIEVREQVLSRESLYLADEVFASGTAAEITPVRSVDGIQVGEGRCGPVTKRIQQAFFGLFTGETEDKWGWLDQVNQ
B8: ilvE M255Q (protein)
chain: MTTKKADYIWFNGEMVRWEDAKVHVMSHALHYGTSVFEGIRCYDSHKGPVVFRHREHMQRLHDSAKIYRFPVSQSIDELMEACRDVIRKNNLTSAYIRPLIFVGDVGMGVNPPAGYSTDVIIAAFPWGAYLGAEALEQGIDAMVSSWNRAAPNTIPTAAKAGGNYLSSLLVGSEARRHGYQEGIALDVNGYISEGAGENLFEVKDGVLFTPPFTSSALPGITRDAIIKLAKELGIEVREQVLSRESLYLADEVFQSGTAAEITPVRSVDGIQVGEGRCGPVTKRIQQAFFGLFTGETEDKWGWLDQVNQ

target: Escherichia coli (laboratory strain); assay: barcode share on antibiotic plates over drug-free plates; higher = less susceptible; settings: antibiotic: carbenicillin; 2× MIC (3.1 µg/mL)
Procedure: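 A pool of E. coli strains, each edited to carry one amino-acid change in an essential protein, was grown for 48 h on minimal glucose agar with or without antibiotic; strain barcodes were sequenced; mean of two replicates.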

| Protein | fold change of barcode share |
| --- | --- |
| B1 | 0.864 ± 0.016 |
| B2 | > 46.3 [active] |
| B3 | 1.31 ± 0.69 |
| B4 | 0.855 ± 0.069 |
| B5 | 3.66 ± 3.9 |
| B6 | 2.08 ± 1.7 |
| B7 | 0.562 ± 0.17 |
| B8 | 2.64 ± 0.16 |

same assay, conditions: antibiotic: gentamicin; 2× MIC (MIC 0.45 µg/mL)

| Protein | fold change of barcode share |
| --- | --- |
| B3 | < 0.0102 |
| B7 | 0.0107 ± 0.00047 |
| B8 | 0.0394 ± 0.018 |

Source: the supplement of paper PMC11876631
